Assay results published in US20210002376A1 (UNIVERSIT T STUTTGART, published 2021).

Biological target: T1, HER3-Fc fusion protein
T1 construct: range […]; Coated antigen in ELISA; not shown: Fc part of the fusion, not described
Experiment: ELISA, coated HER3-Fc, anti-human Fab-HRP

B1: Db3-43x4D5-Fab-Fckih (bispecific antibody)
heavy 1: [about 120 residues not written out]GGGGSQAGLTQPPAVSVAPGQTASITCGRDNIGSRSVHWYQQKPGQAPVLVVYDDSDRPAGIPERFSGSNYENTATLTISRVEAGDEADYYCQVWGITSDHVVFGGGTKLTVLASTKGPSVFPLAPSSKSTSGGTAALGCLVKDYFPEPVTVSWNSGALTSGVHTFPAVLQSSGLYSLSSVVTVPSSSLGTQTYICNVNHKPSNTKVDKKVEPKSCGTDKTHTCPPCPAPPVAGPSVFLFPPKPKDTLMISRTPEVTCVVVDVSHEDPEVKFNWYVDGVEVHNAKTKPREEQYNSTYRVVSVLTVLHQDWLNGKEYKCKVSNKGLPSSIEKTISKAKGQPREPQVCTLPPSRDELTKNQVSLSCAVKGFYPSDIAVEWESNGQPENNYKTTPPVLDSDGSFFLVSKLTVDKSRWQQGNVFSCSVMHEALHNHYTQKSLSLSPGK
heavy 2: QVQLQQSGPGLVKPSQTLSLTCAISGDSVSSNRAAWNWIRQSPSRGLEWLGRTYYRSKWYNDYAQSLKSRITINPDTPKNQFSLQLNSVTPEDTAVYYCARDGQLGLDALDIWGQGTMVTVSSGGGG[about 200 residues not written out][about 250 residues not written out]
notes: Two different polypeptides; also called bispecific, bivalent diabody fusion protein targeting HER2 (4D5) and HER3 (3-43)
For B1, which EC50 is on record?
The EC50 was 1.1 nM.
